Data as given in PubChem BioAssay (NCATS).
Values joined by “and” are separate entries in the source; they are usually repeats but may differ in a detail not shown here. Equal entries are not always repeated. Inconclusive results, whose numbers are uncertain, are shown with a selection of clear calls. For some of these results: Potencies of inconclusive entries are doubtful fits and often do not repeat. Active and inactive are the calls of the source. Calls come from the whole dose curve; as a rule, active = well fitted curve in the direction sought with a large enough effect; inconclusive = small, poorly fitted or top-dose-only effect, or another doubt; inactive = no such curve, though single readings can be large; an effect the other way counts as inactive or inconclusive.

How the values were obtained:
[1] = Primary qHTS for inhibitors of nuclear receptor binding SET domain protein 2 (NSD2) in an isogenic RCH-ACV NSD2 p.E1099K mutant (9B) (AID 1645876); note: nearly all actives have a fitted effect of over 70% in size
[2] = Primary fluorescence-based thiol-reactive (MSTI) qHTS assay for identification of artifact compounds. (AID 1845221);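 note: potency is the fitted concentration of half-maximal effect; thiol-reactive compounds lower the probe fluorescence signal; nearly all actives have a fitted effect of over 65% in size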
In short: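 Curve-fitted percent inhibition (4-parameter Hill) derived from fluorescence, Ex 525/Em 598 nm, scaled with Acetyl-MSTI and MSTI; 1 h incubation at room temperature.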

KB-3-1 = assay: Cytotoxic Profiling of Annotated Libraries Using Quantitative High-Throughput Screening (AID 1296008); details: Five cell lines viability, CellTiter-Glo ATP luminescence, 48-72 h; max response: hits give low values; note: nearly all actives have a fitted effect of over 60% in size; note: potency is the fitted concentration of half-maximal effect; for max response: % is set by controls: 0 for no effect and ±100 for the full control effect
In short: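 Cytotoxicity was measured as CellTiter-Glo ATP luminescence, read after 10 min at room temperature. Compound treatment of the cells lasted 48 or 72 hr at 37 degrees Celsius in a qHTS format.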

[3] = system: Zika virus NS2B-NS3 protease (linked construct); assay: Primary screen NINDS Rhodamine qHTS for Zika virus inhibitors (AID 1347160); details: activity change, negative = inhibition: at 57.1 µM (top of the series) unless noted; note: % is set by controls: 0 for no effect and ±100 for the full control effect; nearly all actives have a fitted effect of over 55% in size
In short: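 Rhodamine110-peptide cleavage (1.5 µM substrate) by 25 nM linked NS2B-NS3 enzyme at pH 8.0 (Tris, Tween 20), after 15 min RT preincubation with compounds; 15-min fluorescence change normalized to controls and Hill-fitted.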

[4] = qHTS Assay for Identifying Gametocytocidal Compounds (AID 743244); note: potency is the fitted concentration of half-maximal effect;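 for max response: % is set by controls: 0 for no effect and ±100 for the full control effect; actives lower the fluorescent signal which means gametocytes are killed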; details: P. falciparum 3D7 stage III-V gametocytes, alamarBlue, 72 h; max response: hits give low values
In short: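 Stage III–V gametocytes of P. falciparum 3D7 were seeded at 20,000 cells/well onto pre-dispensed compounds. After 72 h, 37 °C, 5% CO2, alamarBlue was added for another 24 h.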

[5] = P-glycoprotein substrates identified in KB-8-5-11 adenocarcinoma cell line, qHTS therapeutic library screen (AID 1346987); note: potency is the fitted concentration of half-maximal effect; nearly all actives have a fitted effect of over 65% in size
In short: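 In this qHTS, P-gp-rich KB-8-5-11 cells received library compounds across a concentration range. Viability was quantified by luminescence after 72 h at 37 degree C.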

[6] = target: Ubiquitin carboxyl-terminal hydrolase 1 (Homo sapiens) (UniProt O94782); assay: Inhibitors of USP1/UAF1: Pilot qHTS (AID 504865);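 note: rhodamine fluorescence freed from ubiquitin-rhodamine substrate followed over time; potency is the fitted concentration of half-maximal effect; nearly all actives have a fitted effect of over 35% in size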
Sequence of UniProt O94782 (O94782 whole entry, looked up): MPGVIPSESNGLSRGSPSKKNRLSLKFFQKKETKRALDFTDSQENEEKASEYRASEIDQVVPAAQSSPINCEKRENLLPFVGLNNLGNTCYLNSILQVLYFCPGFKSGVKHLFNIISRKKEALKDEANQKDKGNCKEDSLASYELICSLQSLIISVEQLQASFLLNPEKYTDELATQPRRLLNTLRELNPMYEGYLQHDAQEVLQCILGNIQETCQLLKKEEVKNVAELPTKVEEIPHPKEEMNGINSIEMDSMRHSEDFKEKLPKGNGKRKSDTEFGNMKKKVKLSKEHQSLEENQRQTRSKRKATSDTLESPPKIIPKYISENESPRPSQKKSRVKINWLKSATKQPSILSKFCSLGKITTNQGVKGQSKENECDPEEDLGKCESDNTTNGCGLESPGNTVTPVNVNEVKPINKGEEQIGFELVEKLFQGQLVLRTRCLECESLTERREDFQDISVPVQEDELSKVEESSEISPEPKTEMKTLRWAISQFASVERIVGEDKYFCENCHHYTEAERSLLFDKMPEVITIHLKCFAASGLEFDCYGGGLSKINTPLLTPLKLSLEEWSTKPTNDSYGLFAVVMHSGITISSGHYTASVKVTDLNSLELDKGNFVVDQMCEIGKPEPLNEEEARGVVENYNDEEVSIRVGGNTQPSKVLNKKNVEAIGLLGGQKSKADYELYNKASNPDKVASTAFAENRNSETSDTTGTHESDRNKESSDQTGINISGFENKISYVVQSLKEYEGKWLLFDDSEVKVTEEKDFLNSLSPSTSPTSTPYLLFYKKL
In short: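 Kinetic fluorescence assay: 1nM USP1/UAF1, 15 min compound preincubation, then 150nM Ub-Rho; 480/540 nm.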

DIV14 = assay: qHTS profiling for inhibitors of Plasmodium falciparum proliferation (AID 504749); note: nearly all actives have a fitted effect of over 60% in size; note: potency is the fitted concentration of half-maximal effect; details: P. falciparum in erythrocytes, SYBR Green DNA, 72 h; series mostly up to 28.7 µM
In short: (§1)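 In a 72 h erythrocytic culture (37 C, humidified, 5% CO2) at 2.5% hematocrit and 0.3% starting parasitemia, compounds were tested; SYBR Green I in detergent lysis buffer stained parasite DNA overnight.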

ICS = assay: as above; details: P. falciparum in erythrocytes, SYBR Green DNA, 72 h; series mostly up to 28.7 µM
In short: as §1

PC26 = assay: as above; details: P. falciparum in erythrocytes, SYBR Green DNA, 72 h; series mostly up to 28.7 µM
In short: as §1

[7] = target: Phospholipid hydroperoxide glutathione peroxidase GPX4 (Homo sapiens) (UniProt P36969); assay: Primary qHTS Assay for Inhibitors of Recombinant Selenoprotein Glutathione Peroxidase 4 (GPX4) (AID 1845192); note: nearly all actives have a fitted effect of over 65% in size; note: potency is the fitted concentration of half-maximal effect; for activity change, negative = inhibition: % is set by controls: 0 for no effect and ±100 for the full control effect
Sequence of UniProt P36969 (P36969 whole entry, looked up): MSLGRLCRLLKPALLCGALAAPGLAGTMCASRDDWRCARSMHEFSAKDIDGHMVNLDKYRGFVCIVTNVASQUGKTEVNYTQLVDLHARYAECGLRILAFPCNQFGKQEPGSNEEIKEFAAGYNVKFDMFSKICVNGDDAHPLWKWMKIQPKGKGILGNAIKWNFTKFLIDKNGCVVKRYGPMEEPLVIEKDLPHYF
In short: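 NADPH consumption followed by fluorescence at 340/450 nm, t=0 and after 15 min at room temperature. Reaction started with cumene hydroperoxide (0.5 mM final) after 30 min compound–GPX4 preincubation; final 200 nM GPX4, 100 nM GR, 1 mM GSH, 0.5 mM NADPH.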

[8] = S16 Schwann cell PMP22 intronic element firefly luciferase assay (AID 624032);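 note: plate controls were DMSO for no effect and PTC124 positive control mean for full effect; nearly all actives have a fitted effect of over 30% in size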
In short: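 Luciferase reporter of PMP22 intronic-element expression in stably transfected S16 rat Schwann cells, read by ONE-Glo luminescence after 24 h compound exposure at 37 C. Activity scaled between DMSO (0%) and positive-control PTC124; concentration-effect curves quality-classified.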

CP194 = assay: qHTS profiling for inhibitors of Plasmodium falciparum proliferation (AID 504749); note: nearly all actives have a fitted effect of over 60% in size; note: potency is the fitted concentration of half-maximal effect; details: P. falciparum in erythrocytes, SYBR Green DNA, 72 h; series mostly up to 28.7 µM
In short: as §1

CP215 = assay: as above; details: P. falciparum in erythrocytes, SYBR Green DNA, 72 h; series mostly up to 28.7 µM
In short: as §1

CP260 = assay: as above; details: P. falciparum in erythrocytes, SYBR Green DNA, 72 h; series mostly up to 28.7 µM
In short: as §1

SKOV3 = assay: Primary qHTS to identify gynecologic anti-cancer compounds using libraries of approved drugs and bioactive compounds (AID 1345084); details: Gynecologic cancer cell panel viability, ATPlite luminescence, 48 h; series mostly up to 57.5 µM; note: potency is the fitted concentration of half-maximal effect; nearly all actives have a fitted effect of over 55% in size
In short: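 Cytotoxicity screen measuring ATP content by luciferase luminescence. Each compound is applied at five concentrations for 48 h at 37 C with 5% CO2.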

[9] = Primary qHTS for inhibitors of nuclear receptor binding SET domain protein 2 (NSD2) in an RCH-ACV wild type WT cells (2C) (AID 1645877); details: activity change, negative = cell killing: at 44.9 µM (top of the series) unless noted; note: nearly all actives have a fitted effect of over 70% in size
Tags give direction and shape of the fitted curve.

COc1cc(/C=C/C(=O)O[C@H]2[C@@H]3C=CO[C@@H](O[C@@H]4O[C@H](CO)[C@@H](O)[C@H](O)[C@H]4O)[C@@H]3[C@@]3(CO)O[C@@H]23)ccc1O
Potency [1]: inactive | Potency [2]: inconclusive: 18.4 µM [inhibitor, single point] | outcome (KB-3-1): inactive

O=C(CCc1ccccc1)c1c(O)c([C@@H]2O[C@H](CO)[C@@H](O)[C@H](O)[C@H]2O)c(O)c([C@@H]2O[C@H](CO)[C@@H](O)[C@H](O)[C@H]2O)c1O
Potency [3]: inactive | Potency [2]: inconclusive: 2.81 µM [inhibitor, partial curve] | max response (KB-3-1): inactive: 8.16%

C=C[C@]1(C)C[C@@H](OC(=O)CSC(C)(C)CNC(=O)[C@H](N)C(C)C)[C@]2(C)[C@H](C)CC[C@]3(CCC(=O)[C@H]32)[C@@H](C)[C@@H]1O
Potency [4]: inconclusive: 22.4 µM [inhibitor, single point] | Potency [5]: inconclusive: 11.6 µM [inhibitor, partial curve] | Potency (KB-3-1): inconclusive: 6.51 µM [inhibitor, partial curve, poor fit]

CC/C=C\C/C=C\C/C=C\CCCCCCCC(=O)O
Potency [6]: inconclusive: 56.2 µM [inhibitor, partial curve, poor fit] and inconclusive: 50.1 µM [inhibitor, partial curve, poor fit] | Potency (DIV14): inconclusive: 15.1 µM [inhibitor, single point] | Potency (ICS): inconclusive: 17.8 µM [inhibitor, single point] | Potency (PC26): inconclusive: 13.5 µM [inhibitor, single point] | max response (KB-3-1): inactive: -1.86%

CCCCN(CCCC)C(=S)[S-].CCCCN(CCCC)C(=S)[S-].[Zn+2]
max response [4]: inconclusive: -45.7% [inhibitor] | Potency [7]: inconclusive: 28.2 µM [inhibitor, partial curve, poor fit] | Potency (KB-3-1): inconclusive: 29.1 µM [inhibitor, single point]

C/C=C/C=C/C(=O)O
Potency [8]: inactive | Potency (CP194): inconclusive: 0.478 µM [inhibitor, partial curve, poor fit] | Potency (CP215): inconclusive: 19 µM [inhibitor, single point] | Potency (ICS): inactive | max response (KB-3-1): inactive: 5.4%

CC(=O)O[C@@H]1[C@@H](O)[C@H](C)O[C@@H](O[C@H]2[C@@H]3C=CO[C@@H](O[C@@H]4O[C@H](CO)[C@@H](O)[C@H](O)[C@H]4OC(C)=O)[C@@H]3[C@@]3(CO)O[C@@H]23)[C@@H]1OC(=O)/C=C/c1ccc(O)cc1
Potency [1]: inactive | Potency [2]: active: 6.3 µM | outcome (KB-3-1): inactive

CC1=CCC2CC1C2(C)C (configuration not stated)
max response (KB-3-1): inactive: 16.6%

C/C(=C(\CCOC(=O)c1ccccc1)SS/C(CCOC(=O)c1ccccc1)=C(/C)N(C=O)Cc1cnc(C)nc1N)N(C=O)Cc1cnc(C)nc1N
max response [4]: inactive: 9.71% | Potency [7]: inconclusive: 35.5 µM [inhibitor, single point] | max response (KB-3-1): inactive: -12.4%

CCN(CC)CCOc1ccc(-c2nc3cc(Cl)ccc3s2)cc1
Potency [6]: inconclusive: 44.7 µM [inhibitor, partial curve] | Potency [4]: inconclusive: 25.1 µM [inhibitor, single point] | Potency (CP260): inconclusive: 17.8 µM [inhibitor, single point] | Potency (DIV14): inconclusive: 10.7 µM [inhibitor, partial curve] | Potency (ICS): inconclusive: 11.2 µM [inhibitor, single point] | Potency (KB-3-1): inconclusive: 29.1 µM [inhibitor, single point]

CCOC(=O)c1ccc(O)c(O)c1
Potency (SKOV3): inconclusive: 39.8 µM [cytotoxic, single point]

CCN(CC)c1ccc(C(=C2C=CC(=[N+](CC)CC)C=C2)c2ccccc2)cc1
Potency [4]: active: 11.2 µM | Potency [5]: active: 4.61 µM | Potency (KB-3-1): active: 1.3 µM

CCCCCC[C@@H](O)C/C=C\CCCCCCCC(=O)O
Potency [7]: inconclusive: 11.2 µM [inhibitor, partial curve] | Potency (DIV14): inactive | max response (KB-3-1): inactive: -2.77% and inactive: 6.21% and inactive: -9.38%

COc1cc(/C=C/C(=O)OC2[C@H](O)CC(O)(C(=O)O)C[C@H]2O)ccc1O (some centres not stated)
Potency [9]: inactive | Potency [7]: inactive | max response (KB-3-1): inactive: 0.663%

CCCCC(CC)CCC(CC(C)C)OS(=O)(=O)O (configuration not stated)
Potency [6]: inconclusive: 89.1 µM [inhibitor, partial curve, poor fit] | Potency [7]: active: 10 µM | Potency (CP260): inconclusive: 17.8 µM [inhibitor, single point] | Potency (ICS): inactive | max response (KB-3-1): inactive: 11% and inactive: -8.89%

COc1ccccc1-n1c(SCC(=O)Nc2nc3ccc(C)cc3s2)nc2c(c1=O)SCC2
Potency [9]: inactive | max response (KB-3-1): inactive: 6.25%
